Source: PubChem BioAssay AID1345082 (National Center for Advancing Translational Sciences (NCATS), 2018)
Among all 94,000 compounds or so, about 4,000 (4.3%) were called active. The inconclusive results got no clear call from the source; some entries with a clear call stand among them for comparison. Calls follow the shape of the dose curve; as a rule, active = well fitted inhibition curve with a large enough effect; inconclusive = small, poorly fitted or top-dose-only effect; inactive = no such curve, though single readings can be large or run the other way. Where the call is inconclusive, the potency comes from a doubtful curve fit.
Potency is read from the fitted curve at half-maximal effect; tags tell the direction and shape of the fitted curve.

Test: Cytotoxic Profiling in NIH 3T3 Cell Line of Diverse Libraries Using Quantitative High-Throughput Screening; also: nearly all actives have a fitted effect of over 55% in size
Settings: NIH 3T3 viability, CellTiter-Glo ATP luminescence, 48-72 h; series mostly up to 96.7 µM
Method in brief: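 Mouse fibroblast NIH 3T3 cells, 400 per well, received compound via pintool and were incubated for 48 or 72 hr prior to CellTiter-Glo ATP luminescence measurement.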
With `CC1=Nc2cc(C(=O)NC(C)c3ccccc3)ccc2Sc2ccccc21` (stereo unspecified) the Potency was inconclusive: 50.1 µM [inhibitor, partial curve, poor fit].
In the case of `O=C(c1ccc(F)cc1)N1CCC2(CC1)CC(Cc1ccccc1)=NO2`, the Potency was inconclusive: 39.8 µM [inhibitor, partial curve, poor fit].
With `COc1ccc(C(=O)NCc2nnc3ccc(-c4ccc(Cl)cc4)nn23)cc1F` the Potency was inconclusive: 44.7 µM [inhibitor, partial curve].
With `CC1=C[C@@H](CNC(=O)NC2CCCCC2)[C@H](C(C)C)C[C@H]1Cc1nc2ccc(C)cc2[nH]1` the Potency was inconclusive: 28.2 µM [inhibitor, partial curve, poor fit].
For `O=C(Nc1cc(F)cc(C(F)(F)F)c1)N1CCC(Cn2cccn2)CC1`, the Potency was inconclusive: 89.1 µM [inhibitor, single point].
In the case of `CC1(C)[C@H](Cc2cc(CN3CCOCC3)on2)C[C@@H]1NCc1ccccc1O`, the Potency was inconclusive: 63.1 µM [inhibitor, partial curve, poor fit].
With `C[C@@]12CO[C@H](c3ccccc3)C[C@@H]1C[C@H](N1CCN(CCOCc3ccccc3)CC1)C2` the Potency was inconclusive: 15.8 µM [inhibitor, partial curve, poor fit].
With `O=C(CC1COCCN1C(=O)CCn1ccccc1=O)N1CCCCCC1` (stereo unspecified) the Potency was “inactive”.
With `COc1cccc(C(=O)NC2CCN(CCn3nc4n(c3=O)CCCC4)C2)c1` (stereo unspecified) the Potency was “inactive”.
With `COc1ccc(OC)c(NC(=O)CN2C(=O)NC(c3ccc(Cl)cc3)C3=C2COC3=O)c1` (stereo unspecified) the Potency was inconclusive: 39.8 µM [inhibitor, partial curve, poor fit].
For `Nc1ncccc1CN1CC[C@@H]2OCC(=O)N(Cc3ccccc3)[C@H]2CC1`, the Potency was inconclusive: 20 µM [inhibitor, full curve].
With `COc1ccccc1-c1cc(C(=O)N(C)c2ccccc2)c2cnn(C)c2n1` the Potency was inconclusive: 50.1 µM [inhibitor, partial curve, poor fit].
In the case of `COc1cc(OC)cc(C(=O)N2CCC[C@H]2c2nc(-c3ccc(C)cc3)no2)c1`, the Potency was “inactive”.
For `COc1ccccc1-c1nc2nccc(-c3ccc4c(c3)OCCCO4)n2n1`, the Potency was inconclusive: 39.8 µM [inhibitor, partial curve].
For `O=C(CN1CC2CC(C1)[C@H]1CCCC(=O)N1C2)NCCc1ccccc1` (stereo partly specified), the Potency was “inactive”.
For `CNC(=O)[C@H]1C[C@]2(CCCCN(CCO)C2=O)N(C(=O)Cc2ccc(OC)cc2)[C@H]1c1ccco1`, the Potency was inconclusive: 50.1 µM [inhibitor, partial curve, poor fit].
